At least one read-out could not be matched to a standard name with certainty.
Test system: albino guinea-pig eye
Experiment: Pruritogenic activity of autocoids: topical drop to the eye (conjunctiva), scratching episodes counted over 15 minutes
Format: in vivo
Conditions: 20 µl drop topically to one eye, n=12
Source text: A more complete appreciation of the invention may be obtained from the following Examples. As a means of providing an atraumatic experimental model of itching, the conjunctiva was used as a convenient tissue site. Pruritogenic agents may be administered to the conjunctiva without the need to traumatize the tissue by injection or scarification. The itch sensation is elicited peripherically by local, atraumatic application of the pruritogen. Of equal importance is the ability of this model to identify locally acting anti-pruritic agents without concerns regarding local tissue trauma or, in the case of systemically administered agents, sedation.
The pruritogenic activity of numerous and structurally diverse autocoids was examined as follows. A 20 µl drop of a solution of the particular autocoid under evaluation was topically administered to one albino guinea-pig eye, the contralateral eye received 20 µl of vehicle as a control. For PAF studies, the R=15 version of formula I was used and was taken up in 0.5% ultrapure bovine serum albumin. The guinea pig was then replaced in its cage and the number of scratching episodes was recorded over the 15 subsequent minute period. The retention of the experimental animal in familiar surroundings is an important factor in experimental design. Scratching, which is the typical mammalian behavioral response to the itch sensation, provides an indication of the intensity of the perceived itch sensation and can be quantified by recording the frequency at which itch-scratch episodes occur per unit time: 15 minutes in the case of these examples.

SMILES: C[N+](C)(C)CCOC(N)=O [CARBACHOL]
- NO OF SCRATCH EPISODES (X̄ ± SEM) (dose 10 μg): 0.75 ± 0.33
- NO OF SCRATCH EPISODES (X̄ ± SEM) (dose 100 μg): 0.83 ± 0.24
- NO OF SCRATCH EPISODES (X̄ ± SEM) (dose 1000 μg): 3.08 ± 0.67

SMILES: CCCCC/C=C\C\C=C/C=C/C=C/[C@@H](SC[C@H](N)C(=O)NCC(=O)O)[C@@H](O)CCCC(=O)O [LEUKOTRIENE D4]
- NO OF SCRATCH EPISODES (X̄ ± SEM) (dose 1 μg): 0.83 ± 0.41
- NO OF SCRATCH EPISODES (X̄ ± SEM) (dose 10 μg): 0.50 ± 0.34

SMILES: CCCCC/C=C\C\C=C/C=C/C=C/[C@@H](SC[C@H](N)C(=O)O)[C@@H](O)CCCC(=O)O [LEUKOTRIENE E4]
- NO OF SCRATCH EPISODES (X̄ ± SEM) (dose 1 μg): 0.58 ± 0.42
- NO OF SCRATCH EPISODES (X̄ ± SEM) (dose 10 μg): 0.25 ± 0.13

SMILES: CC(=O)OC(C)C[N+](C)(C)C (stereo not shown) [METHACHOLINE]
- NO OF SCRATCH EPISODES (X̄ ± SEM) (dose 10 μg): 0.50 ± 0.19
- NO OF SCRATCH EPISODES (X̄ ± SEM) (dose 100 μg): 0.67 ± 0.43
- NO OF SCRATCH EPISODES (X̄ ± SEM) (dose 1000 μg): 2.17 ± 0.77

SMILES: CCCCC[C@H](O)/C=C/[C@H]1C(=O)C[C@H](O)[C@@H]1C/C=C\CCCC(=O)O [PROSTAGLANDIN D2]
- NO OF SCRATCH EPISODES (X̄ ± SEM) (dose 1 μg): 0.75 ± 0.25
- NO OF SCRATCH EPISODES (X̄ ± SEM) (dose 10 μg): 4.42 ± 1.36
- NO OF SCRATCH EPISODES (X̄ ± SEM) (dose 100 μg): 3.08 ± 0.47

SMILES: CCCCC[C@H](O)/C=C/[C@H]1[C@H](O)CC(=O)[C@@H]1C/C=C\CCCC(=O)O [PROSTAGLANDIN E2]
- NO OF SCRATCH EPISODES (X̄ ± SEM) (dose 1 μg): 2.25 ± 0.66
- NO OF SCRATCH EPISODES (X̄ ± SEM) (dose 10 μg): 3.08 ± 0.48
- NO OF SCRATCH EPISODES (X̄ ± SEM) (dose 100 μg): 8.17 ± 1.54

— patent EP0532512B1, “USE OF PLATELET ACTIVATING FACTOR ANTAGONISTS AS ANTI-PRURITIC AGENTS” (ALLERGAN, INC., priority 1990, dated 1991)
